Data as given in US20140363438A1, “NEUREGULIN ANTIBODIES AND USES THEREOF” (Genentech, Inc., priority 2011, published 2014).

T1: Betacellulin (BTC) (Homo sapiens, UniProt P35070)
T1 sequence (P35070 32-178): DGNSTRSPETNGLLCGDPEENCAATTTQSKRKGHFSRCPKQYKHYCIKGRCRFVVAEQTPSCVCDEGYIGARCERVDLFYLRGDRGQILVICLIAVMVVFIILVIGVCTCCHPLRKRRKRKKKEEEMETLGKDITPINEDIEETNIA

T2: BTC (Homo sapiens, UniProt P35070)
T2 sequence (P35070 32-178): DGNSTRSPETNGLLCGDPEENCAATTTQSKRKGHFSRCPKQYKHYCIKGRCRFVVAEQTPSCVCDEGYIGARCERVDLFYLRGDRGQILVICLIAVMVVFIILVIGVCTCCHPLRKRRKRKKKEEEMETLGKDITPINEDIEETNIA


Experiments:
NRG1-B = NRG1-B induced HER4 phosphorylation, cell-based, Western blot
Method: (§1) NRG1, HB-EGF and BTC are also ligands for the HER4 receptor. Therefore, the ability of YW538.24.71 and YW526.90.28 to inhibit BTC and HB EGF-induced HER4 phosphorylation was analyzed in a cell-based assay.

HB-EGF [1] = target: T3, HB-EGF (Homo sapiens, UniProt Q99075); test: HB-EGF induced HER4 phosphorylation, cell-based, Western blot
T3 sequence (Q99075 63-148 limits assumed, species assumed): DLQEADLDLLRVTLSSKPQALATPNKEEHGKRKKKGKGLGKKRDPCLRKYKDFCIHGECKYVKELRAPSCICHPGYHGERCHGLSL
Method: as §1

EGF = EGF (Homo sapiens, UniProt P01133); test: Specificity ELISA, binding to EGF
Sequence of EGF (P01133 971-1023 limits assumed, species assumed): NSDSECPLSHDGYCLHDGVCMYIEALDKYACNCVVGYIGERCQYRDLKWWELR
Method: (§2) To confirm antibody specificity, binding of the antibodies to the related EGF family ligands, EGF, HB-EGF, and Betacellulin (BTC) was assessed.

LKPH2 cells = test: NSCLC LKPH2 tumor growth in athymic nude mice; format: in vivo, mouse; settings: with gemcitabine 100 mg/kg every four days for four doses, FIG. 23
Method: The ability of anti-NRG1 antibodies to inhibit tumor growth in a mouse model system for non-small cell lung cancer (NSCLC) was determined Athymic nude mice were inoculated subcutaneously into the right flank with a) 20 million H596 cells or b) 2 million LKPH2 cells. When tumors reached a mean of 150-250 mm3 animals were grouped out into treatment groups with equivalent mean starting tumor volumes. Animals were treated as follows:
Group 1: Vehicle: Anti-ragweed, 20 mg/kg, IP qwk for study duration+Carboplatin buffer, IP q4d×5+Paclitaxel buffer, IV q4d x 5. Group 2: Y538.24.71: Y538.24.71, 20 mg/kg, IP qwk for study duration+Carboplatin buffer, IP q4d×5+Paclitaxel buffer, IV q4d×5. Group 3: Chemo+Ragweed: Anti-ragweed, 20 mg/kg, IP qwk for study duration+Carboplatin, 60 mg/kg IP q4d×5+Paclitaxel 20 mg/kg, IV q4d x 5. Group 4: Chemo+538.24.71: 538.24.71, 20 mg/kg, IP qwk for study duration+Carboplatin, 60 mg/kg IP q4d×5+Paclitaxel 20 mg/kg, IV q4d x 5.
Tumor Growth curves and a Kaplan-Meier curve were generated as described in Example 15. FIGS. 21 and 22.
In this study, gemcitabine, at 100 mg/kg, was administered to the mice every four days for four doses. Tumor Growth curves and Kaplan-Meier curve were generated as in Example 15.

NRG1 autocrine signaling [2] = test: NRG1 autocrine signaling, Western blot, mouse cells; format: cell-based; settings: 0.1% FBS, 48 hours
Method: (§3) Cells were grown in media containing 0.1% FBS+antibodies as indicated for 48 hours. Cells were washed 3 times with 1×PBS and lysed with RIPA buffer containing protease and phosphatase inhibitors. Lysates were collected, and processed for western blotting.

NRG1 autocrine signaling [3] = test: NRG1 autocrine signaling, Western blot, human cells; format: cell-based; settings: 0.1% FBS, 48 hours
Method: as §3

Betacellulin (BTC) = target: T1, Betacellulin (BTC); test: Specificity ELISA, binding to Betacellulin
Method: as §2

HB-EGF [4] = target: T3, HB-EGF; test: Specificity ELISA, binding to HB-EGF
Method: as §2

BTC = target: T2, BTC; test: BTC induced HER4 phosphorylation, cell-based, Western blot
Method: as §1

Molecule	NRG1-B induced HER4 phosphorylation (NRG1-B)	HB-EGF induced HER4 phosphorylation (HB-EGF [1])	binding to EGF (EGF)	response of LKPH2 tumors to gemcitabine treatment (LKPH2 cells)	phospho-AKT levels (NRG1 autocrine signaling [2])	phospho-Her3 levels (NRG1 autocrine signaling [2])	phospho-AKT levels (NRG1 autocrine signaling [3])	phospho-Her3 levels (NRG1 autocrine signaling [3])	binding to Betacellulin (BTC) (Betacellulin (BTC))	binding to HB-EGF (HB-EGF [4])	BTC induced HER4 phosphorylation (BTC)
YW538.24.71: affinity matured anti-NRG1 antibody; VH SEQ ID NO: 21, VL SEQ ID NO: 26; heavy chain SEQ ID NO: 72, light chain SEQ ID NO: 73 (antibody, Heavy chain; Light chain) heavy: EVQLVESGGGLVQPGGSLRLSCAASGFTFSGTWIHWVRQAPGKGLEWVAAITPADGSTNYADSVKGRFTISADTSKNTAYLQMNSLRAEDTAVYYCATYMFAMDYWGQGTLVTVSS[skipping human IgG1 constant region] light: DIQMTQSPSSLSASVGDRVTITCRASQDVSISLAWYQQKPGKAPKLLIYGASNLESGVPSRFSGSGSGTDFTLTISSLQPEDFATYYCQQHYTLPFTFGQGTKVEIKRTVAAPSVFIFPPSDEQLKSGTASVVCLLNNFYPREAKVQWKVDNALQSGNSQESVTEQDSKDSTYSLSSTLTLSKADYEKHKVYACEVTHQGLSSPVTKSFNRGEC	potentially inhibited	no effect	no detectable binding	enhanced the response	dose-dependent decreases	dose-dependent decreases	dose-dependent decreases	dose-dependent decreases	no detectable binding	no detectable binding	no effect
YW526.90.28: affinity matured anti-NRG1 antibody; VH SEQ ID NO: 63, VL SEQ ID NO: 53; heavy chain SEQ ID NO: 74, light chain SEQ ID NO: 75 (antibody, Heavy chain; Light chain) heavy: EVQLVESGGGLVQPGGSLRLSCAASGFTFSDIAMSWVRQAPGKGLEWVSWIYPSGGNTYYADSVKGRFTISADTSKNTAYLQMNSLRAEDTAVYYCARSYILSQKSATWAFDYWGQGTLVTVSS[skipping human IgG1 constant region] light: DIQMTQSPSSLSASVGDRVTITCRASQSISSYLAWYQQKPGKAPKLLIYGASSRASGVPSRFSGSGSGTDFTLTISSLQPEDFATYYCQQSYSTPITFGQGTKVEIKRTVAAPSVFIFPPSDEQLKSGTASVVCLLNNFYPREAKVQWKVDNALQSGNSQESVTEQDSKDSTYSLSSTLTLSKADYEKHKVYACEVTHQGLSSPVTKSFNRGEC			no detectable binding						no detectable binding	no detectable binding	
